Where a chain is given by its changes, count along the chain named.
B1: 1210-1618.m2.m16 (bispecific antibody, human IgG1, kappa)
heavy: [no letters for about 100 residues]YYGGYYSAWMDYWGQGTLVTVSS[no letters for human IgG1 constant region with changes]GGGGSEVQLLESGGGLVQPGGSLRLSCAASGFTFSYGSMYWVRQAPGKGLEWVSSISSGSGSTYYADSVKGRFTISRDNSKNTLYLQMNSLRAEDTAVYYCARSSYYGSYYSIDYWGQGTLVTVSSGGGGSGGGGSGGGGSDIQMTQSPSSLSASVGDRVTITCRASQSISSYLNWYQQKPGKAPKLLIYAASSLQSGVPSRFSGSGSGTDFTLTISSLQPEDFATYYCQQYYDNLPTFGQGTKLEIK
light: DIQMTQSPSSLSASVGDRVTITCRASQSISSYLNWYQQKPGKAPKLLIYAASSLQSGVPSRFSGSGSGTDFTLTISSLQPEDFATYYCQQTYGYLHTFGQGTKLEIKRTVAAPSVFIFPPSDEQLKSGTASVVCLLNNFYPREAKVQWKVDNALQSGNSQESVTEQDSKDSTYSLSSTLTLSKADYEKHKVYACEVTHQGLSSPVTKSFNRGEC
B2: 1210-1618.m2.m7.m15 (bispecific antibody, human IgG1, kappa)
heavy: [no letters for about 100 residues]YYGGYYSAWMDYWGQGTLVTVSS[no letters for human IgG1 constant region with changes]THTCPPCPEPKSSDKDIQMTQSPSSLSASVGDRVTITCRASQSISSYLNWYQQKPGKAPKLLIYAASSLQSGVPSRFSGSGSGTDFTLTISSLQPEDFATYYCQQYYDNLPTFGQGTKLEIKGGGGSGGGGSGGGGSEVQLLESGGGLVQPGGSLRLSCAASGFTFSYGSMYWVRQAPGKGLEWVSSISSGSGSTYYADSVKGRFTISRDNSKNTLYLQMNSLRAEDTAVYYCARSSYYGSYYSIDYWGQGTLVTVSS
light: B1 light
notes: scFv in VL-VH order
B3: 1210-1618.m2.m7.m17 (bispecific antibody, human IgG1, kappa)
heavy: [no letters for about 100 residues]YYGGYYSAWMDYWGQGTLVTVSS[no letters for human IgG1 constant region with changes]EAAKEAAKGGGGSDIQMTQSPSSLSASVGDRVTITCRASQSISSYLNWYQQKPGKAPKLLIYAASSLQSGVPSRFSGSGSGTDFTLTISSLQPEDFATYYCQQYYDNLPTFGQGTKLEIKGGGGSGGGGSGGGGSEVQLLESGGGLVQPGGSLRLSCAASGFTFSYGSMYWVRQAPGKGLEWVSSISSGSGSTYYADSVKGRFTISRDNSKNTLYLQMNSLRAEDTAVYYCARSSYYGSYYSIDYWGQGTLVTVSS
light: B1 light
notes: scFv in VL-VH order
B4: 1210-1618.m2.m7.m18 (bispecific antibody, human IgG1, kappa)
heavy: [no letters for about 100 residues]YYGGYYSAWMDYWGQGTLVTVSS[no letters for human IgG1 constant region with changes]EAAKEAAKDIQMTQSPSSLSASVGDRVTITCRASQSISSYLNWYQQKPGKAPKLLIYAASSLQSGVPSRFSGSGSGTDFTLTISSLQPEDFATYYCQQYYDNLPTFGQGTKLEIKGGGGSGGGGSGGGGSEVQLLESGGGLVQPGGSLRLSCAASGFTFSYGSMYWVRQAPGKGLEWVSSISSGSGSTYYADSVKGRFTISRDNSKNTLYLQMNSLRAEDTAVYYCARSSYYGSYYSIDYWGQGTLVTVSS
light: B1 light
notes: scFv in VL-VH order
B5: 1618-1210.m2.m15 (bispecific antibody, human IgG1, kappa)
heavy: EVQLLESGGGLVQPGGSLRLSCAASGFTFSYGSMYWVRQAPGKGLEWVSSISSGSGSTYYADSVKGRFTISRDNSKNTLYLQMNSLRAEDTAVYYCARSSYYGSYYSIDYWGQGTLVTVSS[no letters for human IgG1 constant region with changes]THTCPPCPEPKSSDK[no letters for about 100 residues]YYGGYYSAWMDYWGQGTLVTVSSGGGGSGGGGSGGGGSDIQMTQSPSSLSASVGDRVTITCRASQSISSYLNWYQQKPGKAPKLLIYAASSLQSGVPSRFSGSGSGTDFTLTISSLQPEDFATYYCQQTYGYLHTFGQGTKLEIK
light: B1 light with T91Y, G93D, Y94N, H96P
B6: 1618-1210.m2.m16 (bispecific antibody, human IgG1, kappa)
heavy: EVQLLESGGGLVQPGGSLRLSCAASGFTFSYGSMYWVRQAPGKGLEWVSSISSGSGSTYYADSVKGRFTISRDNSKNTLYLQMNSLRAEDTAVYYCARSSYYGSYYSIDYWGQGTLVTVSS[no letters for about 450 residues with a human IgG1 Fc]YYGGYYSAWMDYWGQGTLVTVSSGGGGSGGGGSGGGGSDIQMTQSPSSLSASVGDRVTITCRASQSISSYLNWYQQKPGKAPKLLIYAASSLQSGVPSRFSGSGSGTDFTLTISSLQPEDFATYYCQQTYGYLHTFGQGTKLEIK
light: B1 light with T91Y, G93D, Y94N, H96P
B7: 1618-1210.m2.m17 (bispecific antibody, human IgG1, kappa)
heavy: EVQLLESGGGLVQPGGSLRLSCAASGFTFSYGSMYWVRQAPGKGLEWVSSISSGSGSTYYADSVKGRFTISRDNSKNTLYLQMNSLRAEDTAVYYCARSSYYGSYYSIDYWGQGTLVTVSS[no letters for human IgG1 constant region with changes]EAAKEAAKGGGGS[no letters for about 100 residues]YYGGYYSAWMDYWGQGTLVTVSSGGGGSGGGGSGGGGSDIQMTQSPSSLSASVGDRVTITCRASQSISSYLNWYQQKPGKAPKLLIYAASSLQSGVPSRFSGSGSGTDFTLTISSLQPEDFATYYCQQTYGYLHTFGQGTKLEIK
light: B1 light with T91Y, G93D, Y94N, H96P
B8: 1618-1210.m2.m7.m15 (bispecific antibody, human IgG1, kappa)
heavy: EVQLLESGGGLVQPGGSLRLSCAASGFTFSYGSMYWVRQAPGKGLEWVSSISSGSGSTYYADSVKGRFTISRDNSKNTLYLQMNSLRAEDTAVYYCARSSYYGSYYSIDYWGQGTLVTVSS[no letters for human IgG1 constant region with changes]THTCPPCPEPKSSDKDIQMTQSPSSLSASVGDRVTITCRASQSISSYLNWYQQKPGKAPKLLIYAASSLQSGVPSRFSGSGSGTDFTLTISSLQPEDFATYYCQQTYGYLHTFGQGTKLEIKGGGGSGGGGSGGGGS[no letters for about 100 residues]YYGGYYSAWMDYWGQGTLVTVSS
light: B1 light with T91Y, G93D, Y94N, H96P
notes: scFv in VL-VH order
B9: 1618-1210.m2.m7.m16 (bispecific antibody, human IgG1, kappa)
heavy: EVQLLESGGGLVQPGGSLRLSCAASGFTFSYGSMYWVRQAPGKGLEWVSSISSGSGSTYYADSVKGRFTISRDNSKNTLYLQMNSLRAEDTAVYYCARSSYYGSYYSIDYWGQGTLVTVSS[no letters for human IgG1 constant region with changes]GGGGSDIQMTQSPSSLSASVGDRVTITCRASQSISSYLNWYQQKPGKAPKLLIYAASSLQSGVPSRFSGSGSGTDFTLTISSLQPEDFATYYCQQTYGYLHTFGQGTKLEIKGGGGSGGGGSGGGGS[no letters for about 100 residues]YYGGYYSAWMDYWGQGTLVTVSS
light: B1 light with T91Y, G93D, Y94N, H96P
notes: scFv in VL-VH order
B10: 1618-1210.m2.m7.m17 (bispecific antibody, human IgG1, kappa)
heavy: EVQLLESGGGLVQPGGSLRLSCAASGFTFSYGSMYWVRQAPGKGLEWVSSISSGSGSTYYADSVKGRFTISRDNSKNTLYLQMNSLRAEDTAVYYCARSSYYGSYYSIDYWGQGTLVTVSS[no letters for human IgG1 constant region with changes]EAAKEAAKGGGGSDIQMTQSPSSLSASVGDRVTITCRASQSISSYLNWYQQKPGKAPKLLIYAASSLQSGVPSRFSGSGSGTDFTLTISSLQPEDFATYYCQQTYGYLHTFGQGTKLEIKGGGGSGGGGSGGGGS[no letters for about 100 residues]YYGGYYSAWMDYWGQGTLVTVSS
light: B1 light with T91Y, G93D, Y94N, H96P
notes: scFv in VL-VH order
B11: 1618-1210.m2.m7.m18 (bispecific antibody, human IgG1, kappa)
heavy: EVQLLESGGGLVQPGGSLRLSCAASGFTFSYGSMYWVRQAPGKGLEWVSSISSGSGSTYYADSVKGRFTISRDNSKNTLYLQMNSLRAEDTAVYYCARSSYYGSYYSIDYWGQGTLVTVSS[no letters for human IgG1 constant region with changes]EAAKEAAKDIQMTQSPSSLSASVGDRVTITCRASQSISSYLNWYQQKPGKAPKLLIYAASSLQSGVPSRFSGSGSGTDFTLTISSLQPEDFATYYCQQTYGYLHTFGQGTKLEIKGGGGSGGGGSGGGGS[no letters for about 100 residues]YYGGYYSAWMDYWGQGTLVTVSS
light: B1 light with T91Y, G93D, Y94N, H96P
notes: scFv in VL-VH order

Target: T1, CD137-bio (Ancell #502-030) (human, UniProt Q07011 24-186, biotinylated)
T1 construct: detection reagent of the dual ELISA
T1 sequence (Q07011 24-186 limits assumed): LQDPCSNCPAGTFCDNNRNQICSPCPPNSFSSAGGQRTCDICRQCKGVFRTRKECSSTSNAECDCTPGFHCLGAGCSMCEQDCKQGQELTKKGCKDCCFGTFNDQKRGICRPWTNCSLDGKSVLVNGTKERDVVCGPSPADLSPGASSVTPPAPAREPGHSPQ
Test: dual ELISA: coated 5T4-Fc, detection with CD137-bio
Description: Bispecific binding to both targets, CD137 and 5T4, was evaluated using a standard ELISA protocol. Plates (#655074, Greiner Bio-One GmbH, Germany) were pre-coated with 0.5 μg/ml 5T4-Fc (obtained from Professor Peter Stern, University of Manchester) overnight. CD137-5T4 bsAb were diluted from 8 to 2×10⁻³ μg/ml in 1:4 dilutions and added in duplicates of 50 μl to each well. CD137-bio (Ancell #502-030) was used as detection antibody at 0.5 μg/ml and the binding was detected with Streptavidin-HRP (Pierce #21126). The ELISA was developed with SuperSignal ELISA PICO Chemiluminescent substrate (Thermo Scientific Pierce, Rockford, Ill. USA) during 2-10 minutes and read in an automated microplate based multi-detection reader (FLUOstar OPTIMA, Netherlands).

Binder | binding result
B1 | binds
B2 | binds
B3 | binds
B4 | binds
B5 | binds
B6 | binds
B7 | binds
B8 | binds
B9 | binds
B10 | binds
B11 | binds
